{"source": "PubChem BioAssay AID1030", "about": "(National Center for Advancing Translational Sciences (NCATS), 2008)", "note": "Among all 220,000 compounds or so, about 16,000 (7.3%) were called active. The inconclusive results got no clear call from the source; some entries with a clear call stand among them for comparison. Calls come from the whole dose curve; as a rule, active = well fitted inhibition curve with a large enough effect (not every such curve was filed as active); inconclusive = small, poorly fitted or top-dose-only effect, or another doubt; inactive = no such curve, though single readings can be large or run the other way. No potency is given beside an inconclusive call; the fits are too rough. Potency is the fitted concentration of half-maximal effect; tags give direction and shape of the fitted curve."}
{"target": "Aldehyde dehydrogenase 1A1 (Homo sapiens) (UniProt P00352)", "sequence (P00352 whole entry, looked up)": "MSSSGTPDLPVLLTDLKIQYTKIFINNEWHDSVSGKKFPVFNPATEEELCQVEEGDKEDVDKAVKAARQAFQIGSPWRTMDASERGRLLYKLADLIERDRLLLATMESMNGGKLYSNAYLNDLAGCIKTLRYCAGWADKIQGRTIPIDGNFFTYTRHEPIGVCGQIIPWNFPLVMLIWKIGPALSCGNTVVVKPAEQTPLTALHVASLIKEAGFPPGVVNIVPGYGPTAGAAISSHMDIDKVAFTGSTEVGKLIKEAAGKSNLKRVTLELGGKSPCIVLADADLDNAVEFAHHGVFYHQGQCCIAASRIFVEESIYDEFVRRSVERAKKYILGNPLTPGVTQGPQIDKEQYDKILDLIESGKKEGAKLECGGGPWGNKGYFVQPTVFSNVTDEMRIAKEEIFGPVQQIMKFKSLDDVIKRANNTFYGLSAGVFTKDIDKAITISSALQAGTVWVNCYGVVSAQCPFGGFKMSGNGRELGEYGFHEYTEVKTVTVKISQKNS", "experiment": "qHTS Assay for Inhibitors of Aldehyde Dehydrogenase 1 (ALDH1A1);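 for activity, negative = inhibition: plate controls were no enzyme wells and a reference inhibitor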", "conditions": "Purified ALDH1A1, NADH fluorescence, propionaldehyde substrate; series mostly up to 75.3 µM; activity, negative = inhibition: at the top concentration"}
{"smiles": "Cc1ccc(CN(C(=O)CNC(=O)c2cccs2)C(C(=O)NCC2CCCO2)c2ccccc2)cc1", "note": "(stereo not drawn)", "Potency": "inconclusive [inhibitor, single point]"}
{"smiles": "CC(C)=NOCc1ccc(-c2cc(-c3ccccc3)no2)cc1", "activity, negative = inhibition": "inactive: 1.36% [at 13.5 µM]"}
{"smiles": "Cc1ccc(S(=O)(=O)N2CCC(=O)N(C(COCc3ccccc3)C(C)C)CC2)cc1", "note": "(stereo not drawn)", "Potency": "inconclusive [inhibitor, single point]"}
{"smiles": "O=C(OCn1nnc2ccccc2c1=O)c1ccc(N2CCOCC2)c([N+](=O)[O-])c1", "Potency": "inconclusive [inhibitor, partial curve]"}
{"smiles": "CCOc1ccc(NC(=O)CN2CCN(CC(=O)Nc3ccc(Cl)c(C(F)(F)F)c3)CC2)cc1", "Potency": "active: 12.6 µM"}
{"smiles": "COC(=O)/N=C/c1c(NCc2ccccc2)nc2c(C)cccn2c1=O", "Potency": "inconclusive [inhibitor, partial curve]"}
{"smiles": "COc1ccc(OCCC(=O)NCCN2CCOCC2)cc1", "activity, negative = inhibition": "inactive: 12.8%"}
{"smiles": "O=C(Nc1cc(S(=O)(=O)N2CCOCC2)ccc1Cl)c1cc(=O)c2ccccc2o1", "activity, negative = inhibition": "inactive: -1.3%"}
{"smiles": "O=C(c1csnn1)N1CCC2(CCN(Cc3ccccc3)CC2)CC1", "activity, negative = inhibition": "inactive: -0.0236%"}
{"smiles": "CCC(CC)C(=O)OCC(=O)Nc1cccc(S(=O)(=O)N(C)c2ccccc2)c1", "Potency": "inconclusive [inhibitor, single point]"}
{"smiles": "CC(C)c1ccc(C(=O)CSc2n[nH]c(-c3ccncc3)n2)cc1", "Potency": "inconclusive [inhibitor, single point]"}
{"smiles": "O=c1c2c3c(sc2nc2sc(CN4CCOCC4)cn12)CCCC3", "Potency": "inconclusive [inhibitor, partial curve]"}
{"smiles": "CCC(C)c1ccccc1OCCn1ccnc1", "note": "(stereo not drawn)", "Potency": "inconclusive [inhibitor, partial curve]"}
{"smiles": "O=C1C(CCC(O)c2ccc(F)cc2)C(c2ccc(O)cc2)N1c1ccc(F)cc1", "note": "(stereo not drawn)", "activity, negative = inhibition": "inactive: 11.3%"}
{"smiles": "Cc1cc(-c2csc(NC(=O)c3ccc(S(=O)(=O)N(C)C)cc3)n2)c(C)n1-c1ccccc1", "Potency": "inconclusive [inhibitor, partial curve]"}
{"smiles": "CCOC(=O)c1cnc2c(c(C)nn2C)c1Oc1ccc(Cl)cc1", "Potency": "inconclusive [inhibitor, single point]"}
{"smiles": "O=C(c1ccco1)N1CCN(C(=O)c2ccc(Cn3cc(Br)cn3)o2)CC1", "Potency": "inconclusive [inhibitor, single point]"}
{"smiles": "O=c1c(Cl)cc(Cl)nn1-c1ccccc1", "Potency": "active: 31.6 µM"}
{"smiles": "COc1ccc(/C=C/C(=O)OCC(=O)Nc2cccc(Oc3ccccc3)c2)c(OC)c1", "Potency": "inconclusive [inhibitor, single point]"}
{"smiles": "COc1ccc(O[C@H]2C=C[C@@H](c3ccccc3)O[C@H]2CO/N=C2/c3cc(OC)ccc3O[C@@H](c3cccc(OC)c3)[C@H]2O)cc1", "activity, negative = inhibition": "inactive: 5.34% [at 13.5 µM]"}
{"smiles": "O=c1cnc2cnc(OCc3ccccc3)nc2n1Cc1ccc(F)cc1", "Potency": "inconclusive [inhibitor, partial curve]"}
{"smiles": "CCCCCCC1C(C#N)=C(N)OC2=C1C(=O)CC(C)(C)C2", "note": "(stereo not drawn)", "Potency": "inconclusive [inhibitor, partial curve]"}
{"smiles": "CCC(C)(C)NC(=O)C(c1cccnc1)N(C(=O)c1csnn1)c1ccccc1", "note": "(stereo not drawn)", "activity, negative = inhibition": "inactive: 4.31%"}
{"smiles": "COc1ccc(N2C(=O)C3CCCN3C2c2ccc(C)cc2)cc1", "note": "(stereo not drawn)", "Potency": "active: 20 µM"}
{"smiles": "O=C(Cn1nnc(-c2ccc(CN3CCOCC3)cc2)n1)N(c1ccccc1)c1ccccc1", "Potency": "active: 11.2 µM"}
{"smiles": "COc1ccc(-c2c(C)[nH]n3c(=O)c(Cc4ccccc4)c(C)nc23)cc1", "activity, negative = inhibition": "inactive: -9.11%"}
{"smiles": "CCCCN(Cc1ccccc1)C(=O)C1CCN(Cc2sccc2C)CC1", "Potency": "inconclusive [inhibitor, single point]"}
{"smiles": "Cc1ccnc(NC(=O)COc2ccc3oc4c(c3c2)CCCC4)c1", "Potency": "inconclusive [inhibitor, single point]"}
{"smiles": "Cc1ccc2c(c1)N(CCC(=O)NCc1cccs1)C(=O)C(C)O2", "note": "(stereo not drawn)", "Potency": "inconclusive [inhibitor, partial curve]"}
{"smiles": "O=c1oc(/C=C/c2ccccc2)nc2ccccc12", "activity, negative = inhibition": "inactive: 5.64%"}
{"smiles": "O=C(Cn1nc(-c2ccccc2)ccc1=O)Nc1ccc(NC(=O)c2ccccn2)cc1", "Potency": "inconclusive [inhibitor, single point]"}
{"smiles": "CCOC(=O)C1CCCN(S(=O)(=O)c2ccc(S(N)(=O)=O)cc2)C1", "note": "(stereo not drawn)", "Potency": "inconclusive [inhibitor, single point]"}
{"smiles": "CCOC(=O)c1nn(-c2cccc(Cl)c2)c2nc(Nc3ccccc3)cc(=O)n12", "activity, negative = inhibition": "inactive: -6.5%"}
{"smiles": "CCOc1ccccc1-c1nc(C(N)=O)c2[nH]c(=O)n(-c3ccc(F)cc3)c2n1", "Potency": "inconclusive [inhibitor, partial curve]"}
{"smiles": "Cc1ccc(SCc2cn3c(C)csc3n2)cc1", "Potency": "inconclusive [inhibitor, single point]"}
{"smiles": "O=C1[C@@H]2C(c3cccnc3)=NO[C@@H]2C(=O)N1c1ccc2ccccc2c1", "Potency": "active: 1.58 µM"}
{"smiles": "Cc1ccccc1-n1nc(C(=O)O)cc1-c1ccccc1", "Potency": "inconclusive [inhibitor, single point]"}
{"smiles": "CCCCn1c(N)c(-c2nc3ccccc3o2)c2c([N+](=O)[O-])nn(C)c(=O)c21", "Potency": "inconclusive [inhibitor, partial curve, poor fit]"}
{"smiles": "C=CCn1c(O)c(C(CC)=Nc2ccccc2NC(=O)CC)c(=O)[nH]c1=O", "activity, negative = inhibition": "inactive: 11.1%"}
{"smiles": "O=C(NCc1ccc2c(c1)OCO2)c1ccc(COc2cccc(Cl)c2)o1", "Potency": "inconclusive [inhibitor, single point]"}
{"smiles": "Cc1cccc(OCC(=O)Nc2ccc(S(=O)(=O)Nc3cc(C)nc(C)n3)cc2)c1", "Potency": "inconclusive [inhibitor, single point]"}
{"smiles": "Clc1ccc2nc(-c3ccc(Br)s3)cn2c1", "Potency": "inconclusive [inhibitor, single point]"}
{"smiles": "COc1ccc(CN(C(=O)c2ccco2)c2ccc(C)cc2)cc1OC", "Potency": "active: 7.94 µM"}
{"smiles": "CCCc1cc(=O)oc2cc(Oc3ncccn3)ccc12", "Potency": "inconclusive [inhibitor, partial curve]"}
{"smiles": "COc1ccccc1-n1c(=O)c(C#N)c(-c2ccc([N+](=O)[O-])cc2)c2cc(C(=O)c3cc(F)ccc3O)cnc21", "activity, negative = inhibition": "inactive: -2.09%"}
{"smiles": "Cc1ccc(C)c(N2CC(=O)N(c3cc(C)ccc3C)CC2=O)c1", "activity, negative = inhibition": "inactive: 7.95%"}
{"smiles": "Cc1ccc(S(=O)(=O)N2CCOCC2)cc1NC(=O)COC(=O)C1COc2ccccc2O1", "note": "(stereo not drawn)", "activity, negative = inhibition": "inactive: -6.97%"}
{"smiles": "Cc1ccc(C(=O)N/N=C\\c2cccn2C)cn1", "activity, negative = inhibition": "inactive: -4.38%"}
{"smiles": "c1coc(-c2nnc(SCc3cn4ccccc4n3)o2)c1", "activity, negative = inhibition": "inactive: 4.77%"}
{"smiles": "COC(=O)C(C(=O)OC)[C@@H](NC(=O)OCc1ccccc1)c1ccccc1", "activity, negative = inhibition": "inactive: -15.7%"}
{"smiles": "Cc1ccc(NC(=O)N/C=C/c2ccc(Cl)cc2)cc1", "Potency": "active: 22.4 µM"}
{"smiles": "Cc1cc(-c2ccco2)c(C#N)c2nc3ccccc3n12", "Potency": "inconclusive [inhibitor, single point]"}
{"smiles": "CC1(C)CC(=O)C2=C(C1)N(c1cccnc1)C(N)=C(C#N)C2c1cccs1", "note": "(stereo not drawn)", "Potency": "active: 22.4 µM"}
{"smiles": "CCCCNC(=O)C(c1ccc(OCC(=O)OC)c(C(=O)OC)c1)N(CCc1ccccn1)C(=O)CCCCCN1C(=O)NC(c2ccc(-c3ccccc3)cc2)C(C(=O)OCc2ccccc2)=C1C", "note": "(stereo not drawn)", "activity, negative = inhibition": "inactive: 2.42%"}
{"smiles": "CCOC(=O)CNc1c(-c2ccc(O)cc2)nc2ccc(Cl)cn12", "Potency": "active: 7.08 µM"}
{"smiles": "CCOC(=O)N1CCC(Nc2c(-c3ccc(C)c(C)c3)c(=O)c2=O)CC1", "activity, negative = inhibition": "inactive: 2.12%"}
{"smiles": "CCn1c2ccccc2c2cc(NC(=O)c3cc(OC)c(OC)c(OC)c3)ccc21", "Potency": "inconclusive [inhibitor, single point]"}
{"smiles": "COC(=O)Cc1cn(-c2ncc(C(F)(F)F)cc2Cl)c2ccccc12", "Potency": "inconclusive [inhibitor, partial curve]"}
{"smiles": "O=C(CCN1CCN(c2ccccc2F)CC1)Nc1ccccc1F", "activity, negative = inhibition": "inactive: 1.35%"}
{"smiles": "Cc1c(C(=O)N2CCN(c3ccccc3)CC2)sc2ncnc(N3CCC(C)CC3)c12", "Potency": "inconclusive [inhibitor, partial curve]"}
{"smiles": "CCN(CC)S(=O)(=O)N1CCC(C(=O)NCc2ccc3c(c2)OCO3)CC1", "Potency": "inconclusive [inhibitor, partial curve]"}
{"smiles": "c1ccc(-c2nc(N3CCCCCC3)c3ccccc3n2)nc1", "activity, negative = inhibition": "inactive: 7.5%"}
{"smiles": "CSc1ccccc1C(=O)Nc1cccc([N+](=O)[O-])c1", "Potency": "inconclusive [inhibitor, single point]"}
{"smiles": "CC(=O)[C@@H]1[C@@H]2C(=O)N(c3ccc(F)c(Cl)c3)C(=O)[C@@H]2C2c3ccccc3C=CN21", "note": "(stereo partly drawn)", "Potency": "active: 25.1 µM"}
{"smiles": "O=C(NCCCN1CCOCC1)c1cc2c(s1)CSC2", "activity, negative = inhibition": "inactive: -5.01%"}
{"smiles": "CCCC(=O)C1=C(O)C(C(=O)OC)C(C)(C)CC1=Nc1ccncc1", "note": "(stereo not drawn)", "activity, negative = inhibition": "inactive: -1.44%"}
{"smiles": "COCCCNCC(=O)Nc1sc(C)c(C)c1C(=O)OC", "Potency": "active: 11.2 µM"}
{"smiles": "COC(=O)CN1C(=O)C2(C(C#N)=C(N)Oc3c2c(C)nn3-c2ccccc2)c2ccccc21", "note": "(stereo not drawn)", "Potency": "active: 0.141 µM"}
{"smiles": "CC(C)CC1NC(=O)N(CC(=O)N2CCN(S(=O)(=O)c3ccccc3)CC2)C1=O", "note": "(stereo not drawn)", "activity, negative = inhibition": "inactive: -7.14%"}
{"smiles": "O=C(CN1CCSCC1)N/N=C/c1ccccc1F", "Potency": "inconclusive [inhibitor, partial curve]"}
{"smiles": "COc1ccc(N)cc1C#N", "Potency": "inconclusive [inhibitor, single point]"}
{"smiles": "CC(NC(=O)C1CCN(S(=O)(=O)N2CCCCCC2)CC1)c1ccccc1", "note": "(stereo not drawn)", "Potency": "inconclusive [inhibitor, single point]"}
{"smiles": "Cc1ccc(N/N=C/c2c(O)cc(C)oc2=O)cc1", "Potency": "inconclusive [inhibitor, single point]"}
